Patent US20210147571A1, “MONOCLONAL ANTIBODY TARGETING HUMAN TUMOR STEM CELLS AND USE THEREOF” (Suzhou Bojuhua Biomedical Technology Co. Ltd, priority 2017, published 2021)

Experiments:
[1] = test system: CD90+ stem cells of MHCC97L; test: two-color flow fluorimetry co-staining with CD90; type: binding, human
Description: In order to detect liver cancer stem cells in human liver cancer cell line Bel7402-V13 cells reconginized by monoclonal antibody Hetumomab, which are also ESA and CD90 marker positive, we used two-color flow fluorimetry to stain the human liver cancer cell line Bel7402-V13 cells after culture for 5 days in a serum-free medium.
That is, Hetumomab recognized 40.2% of ESA^+ stem cells. Human liver cancer MHCC97L cells cultured for 5 days in a serum-free medium were stained.

[2] = test system: A549 cells; test: flow immunofluorescence, positive cells in parental and sphere cells; type: binding, human
Method: (§1) The human lung cancer cell line SPCA-1 and A549 cells were cultured for 5 days in a serum-free manner, and the Hetumomab^+ cells in the parental cells and in the cells from sphere culture were detected by viable cell flow fluorescence cytometry. […] That is, after the serum-free culture, Hetumomab^+ cells of the lung cancer cell line were enriched.

[3] = test system: SPCA-1 cells; test: as above; type: binding, human
Method: as §1

[4] = test system: SNU-5 transplanted tumor; test: human gastric cancer transplanted tumor treated with Hetumomab; type: in vivo, nude mice; details: one month
Method: Specifically, the sphere cells of the human gastric cancer cell line SNU-5-V13 were harvested and inoculated in nude mice at 2.5×10^5 cells/mouse. The mice were divided into following 7 groups, with 8 mice in each group: the PBS control group; the mouse IgG control group; the chemotherapy group (cisplatin 0.3 mg/kg); the high dose antibody Hetumomab group (20 mg/kg); the low dose Hetumomab group (1.25 mg/kg); the high dose Hetumomab+chemotherapeutic drug group; and the low dose Hetumomab+chemotherapeutic drug group. The antibody treatment was started on the second day after inoculation of gastric cancer cells.
The experimental groups and the control group were treated by intraperitoneal injection. The treatments were performed for one month. The chemotherapeutic drug group was treated for 4 weeks, twice a week. The major and minor diameters of the subcutaneously transplanted tumor were measured twice a week. The tumor volume was calculated with the formula V=(π/6)×(major diameter×minor diameter×minor diameter). The change in tumor volume in each group was observed.

[5] = test system: membrane surface antigens of T3A-A3 and MHCC97L sphere cells; test: hybridoma screening by cell immunofluorescence; type: binding, human; details: T3A-A3 line and MHCC97L sphere cells
Method: The serum-free suspension medium was DMEM/F12 (1:1) culture medium containing 20 ng/mL EGF, 20 ng/mL bFGF, B27 added at a ratio of 1:50, 10 ng/mL LIF, 2 mmol/mL glutamine, 1 p/mL Heparin. The cells were washed once before culturing with the serum-free medium. The sphere cells of human liver cancer stem cell (human tumor pluripotent stem cell) line T3A-A3 cultured in the serum-free suspension medium were gently blown into single cells and seeded into a 96-well plate at 2000 cells/well. After culturing for 24 h in the serum-free medium, the cells were washed with PBS containing 1% BSA, and incubated for 2 hours at room temperature after adding 1004 culture supernatant of one hybridoma clone to each well. […] After washing with PBS containing 1% BSA for 5 times, fluorescence microscopy was performed under a fluorescence microscope to determine the reaction of each monoclonal antibody hybridoma supernatant in the monoclonal antibody library with the human liver cancer stem cell (human tumor pluripotent stem cell) line T3A-A3. It can be observed that some cells had fluorescent staining, which made them determined as positive, and mouse monoclonal antibodies capable of binding to the membrane surface antigens of the human liver cancer stem cell (human tumor pluripotent stem cell) line T3A-A3 were initially screened out. […]

[6] = test system: Bel7402-V13 transplanted tumor; test: human liver cancer transplanted tumor treated with Hetumomab; type: in vivo, nude mice; details: for tumor growth rate: month after drug withdrawal
Method: Bel7402-V13 sphere cells were inoculated subcutaneouly to nude mice at 30,000 cells/mouse. The nude mice were randomly divided into 6 groups (6 per group) as follows: the chemotherapy group (0.3 mg/kg cisplatin, 6 mice); the high dose antibody group (10 mg/kg, 6 mice); the high dose antibody+chemotherapy group (6 mice); the low dose antibody group (2.5 mg/kg, 6 mice); the low dose antibody+chemotherapy group (6 mice); and the PBS group (6 mice). The treatments were started the next day after the cells were inoculated, twice a week, and terminated after 5 weeks. The major and minor diameters of the subcutaneously transplanted tumor were measured twice a week. The tumor volume was calculated with the formula V=(π/6)×(major diameter×minor diameter×minor diameter), and the changes in tumor volume and growth rate of each group were observed. […] Tumor growth rate=(Vt−V0)/number of days, where Vt is the tumor volume at each measurement, and V0 is the tumor volume […] ([…]).

B1: Hetumomab: mouse monoclonal antibody (IgG1, κ) against human tumor stem cells, hybridoma CGMCC NO. 12251; VL SEQ ID NO:1, VH SEQ ID NO:5 (antibody, V domains shown)
VH: QVTLKESGPGILQPSQTLSLTCSFSGFSLSTSGMGVSWIRQPSGKGLEWLAHIYWDDDKRYNPSLKSRLTISKDSSNNQVFLKITSVDTADTATYYCARSFYYYANNSFAYWGQGTLVTVSS
VL: DIVMTQAAFSNPVTLGTSASISCRSSKSLLHSNGITYLYWFLQKPGQSPQLLIYQMSNLASGVPDRFSSSGSGTDFTLRISRVEAEDVGVYYCAQNLELYTFGGGTKLEIK
modifications: Hetumomab heavy chain variable region; Hetumomab light chain variable region
Co-staining ratio with CD90 [1]: 2.01%
share of CD90+ stem cells recognized [1]: 44.3%
Hetumomab+ cell ratio ([1]; 5 days serum-free): 2.38%
Fold Enrichment [2]: 1.84
ratio of positive cells, Cells from Sphere Culture [2]: 13.30%
ratio of positive cells, Parental Cells [2]: 7.23%
Fold Enrichment [3]: 4.22
ratio of positive cells, Cells from Sphere Culture [3]: 7.34%
ratio of positive cells, Parental Cells [3]: 1.74%
Tumor Volume Inhibition Rate (%) ([4]; High Dose 20 mg/kg i.p.): 57.62%
Tumor Volume Inhibition Rate (%) ([4]; Low Dose 1.25 mg/kg i.p.): 30.68%
binding to membrane surface antigens of tumor stem cells [5]: bound to the membrane surface antigens
tumor volume inhibition rate ([6]; high dose 10 mg/kg, at drug withdrawal after 5 weeks): 71.5%
tumor growth rate ([6]; high dose 10 mg/kg): 0.148 cm^3/day
tumor volume inhibition rate ([6]; high dose 10 mg/kg, one month after drug withdrawal): 49.1%
tumor volume inhibition rate ([6]; low dose 2.5 mg/kg, at drug withdrawal after 5 weeks): 54.4%
tumor growth rate ([6]; low dose 2.5 mg/kg): 0.185 cm^3/day
tumor volume inhibition rate ([6]; low dose 2.5 mg/kg, one month after drug withdrawal): 34.4%
